# From the supplement of paper PMC12217912
# The other results are listed elsewhere or left out. Sequences were assembled here from the parent chain. Values near 0.05 are background.
# B1: TEV protease; numbered along this chain (parent)
# chain: MGESLFKGPRDYNPISSSICHLTNESDGHTTSLYGIGFGPFIITNKHLFRRNNGTLVVQSLHGVFKVKDTTTLQQHLVDGRDMIIIRMPKDFPPFPQKLKFREPQREERICLVTTNFQTKSMSSMVSDTSCTFPSGDGIFWKHWIQTKDGQCGSPLVSTRDGFIVGIHSASNFTNTNNYFTSVPKNFMELLTNQEAQQWVSGWRLNADSVLWGGHKVFMVKPEEPFQPVKEATQL
# Variants of: B1
# Assay: raw area under fraction-flipped curve 0-4 h after induction (AUC4h, not background-subtracted), DNA-recorder readout of cleavage of the substrate (dimensionless); higher = more cleavage of the substrate by the protease variant
# Settings: temperature: 34 °C; time window: 0-4 h after rhamnose induction
# Method: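 In vivo DNA recorder in E. coli TOP10(DE3) ΔrhaA at 34 °C. Each TEVp single-site mutant (parent TEVp 0) is paired with a single-site variant of the 7-mer TEVs (canonical ENLYFQ|S). The substrate sits between flexible linkers in a Bxb1-sfGFP-TEVs-SsrA fusion, so cleavage stabilises Bxb1 and speeds flipping of a recombination array, read by NGS. The value is the raw area under the fraction-flipped curve over 0-4 h after rhamnose induction (AUC4h), with ≥20 reads per time point. It is not background-subtracted; inactive controls average about 0.047.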
# 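Also: Bxb1 expression induced with 0.2% (w/v) L-rhamnose at OD600 near 0.5, cultures sampled hourly, flipped fraction per protease–substrate barcode pair counted by paired-end Illumina sequencing.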
Variant,area with substrate ENAYFQS,area with substrate ENCYFQS,area with substrate ENDYFQS,area with substrate ENEYFQS,area with substrate ENFYFQS,area with substrate ENNYFQS,area with substrate ENPYFQS,area with substrate ENQYFQS,area with substrate ENTYFQS,area with substrate ENVYFQS,area with substrate ENYYFQS,area with substrate ENGYFQS,area with substrate ENHYFQS,area with substrate ENMYFQS,area with substrate ENIYFQS,area with substrate ENRYFQS,area with substrate ENSYFQS,area with substrate ENWYFQS,area with substrate ENKYFQS
R106G,0.0549,0.0598,0.0598,0.0673,0.0709,0.0604,0.068,0.0628,0.0393,0.0742,0.056,–,–,–,–,–,–,–,–
R106K,0.0726,0.0741,–,–,–,0.0508,–,–,0.0583,0.0978,–,0.0656,0.0647,0.0824,–,–,–,–,–
E108Q,0.0509,0.0468,0.049,–,–,–,–,0.0541,0.0647,0.0435,0.0621,0.0555,–,0.0508,0.0722,0.0743,0.0488,0.0393,–
I110E,0.0619,–,–,–,0.0422,0.048,–,–,0.0551,0.0526,0.053,0.115,–,–,–,–,0.0382,0.0442,0.0586
I110V,0.0653,0.0659,0.0713,0.0661,0.0709,0.0636,0.0478,0.0623,0.0576,0.078,0.0631,0.0586,0.0801,0.0904,0.0952,0.0557,0.0642,0.0497,0.0599
L112A,0.0585,–,0.0605,0.0562,0.0561,–,–,0.0618,0.0694,0.0627,–,0.0509,0.0592,0.065,0.0897,0.0331,0.0742,–,–
L112D,0.0611,0.0504,0.0531,0.0536,0.0815,0.0593,0.0614,0.046,–,0.051,0.0618,0.0575,0.0688,–,–,–,–,–,–
L112G,0.0492,0.0655,–,0.05,0.0536,–,–,0.0764,0.0559,0.0413,0.0557,0.0778,0.04,0.0614,–,0.0614,0.0493,0.0391,0.0611
L112K,0.0536,0.0653,0.0415,0.0623,0.0627,0.0593,0.0596,0.0635,0.0732,0.0693,–,0.0682,0.0559,0.0793,0.115,0.0554,0.0623,0.0523,0.0702
L112M,0.0693,0.0697,0.0714,–,–,0.0574,0.0484,0.0727,–,0.0836,–,0.0968,0.0609,0.0825,–,–,0.0586,–,0.07
L112T,0.0616,0.0609,0.0507,0.0753,0.0585,0.0535,0.0687,0.0497,0.0636,–,0.0537,0.0575,0.071,–,0.0425,0.0661,0.0618,0.0591,0.0553
T114H,0.0574,0.0717,0.0669,–,0.0597,–,–,–,–,0.0746,–,–,–,–,–,0.0563,0.0526,0.0009,–
T115G,0.0758,0.0654,–,0.0643,–,–,–,0.0609,0.0679,0.0593,–,0.0583,–,–,–,–,–,–,–
T115M,0.0517,0.0585,0.0583,0.0634,0.0613,0.0663,0.0617,0.0683,0.0517,0.0774,0.064,0.0676,0.0505,0.0911,–,0.0528,0.085,0.0568,–
T119E,0.0678,0.0732,0.059,0.0592,0.0766,0.0571,–,–,–,0.0483,0.0474,–,0.0563,–,–,0.056,–,–,–
T119F,0.0771,0.0636,–,0.0593,–,–,–,0.0473,–,–,0.0577,–,–,0.0761,0.119,–,–,–,–
T119I,0.0665,–,0.0679,0.0319,0.0677,0.0836,0.0682,0.0595,0.0658,0.0665,0.0579,0.0644,0.0656,–,–,–,0.0218,0.0444,–
T119M,0.0501,–,0.0613,–,–,–,–,–,–,–,–,–,–,–,–,–,0.0704,–,–
K120A,0.0149,0.069,0.0573,0.0602,0.0556,0.0501,0.0361,0.0651,0.0672,0.0854,0.0292,–,–,–,0.131,–,0.0575,–,0.0422
K120C,0.0562,0.0789,–,0.109,0.0666,–,–,0.0897,0.0628,0.0768,–,–,0.059,–,–,0.0488,0.0697,0.0601,0.0663
K120D,0.0678,0.0645,0.0592,0.0644,0.0573,0.0507,0.0466,–,0.0815,–,0.0593,–,0.06,–,–,0.0681,0.0638,–,0.0606
K120T,0.0672,0.0633,0.045,0.049,–,–,–,–,0.0641,–,0.0476,0.0625,0.0686,0.0719,–,0.0698,–,–,0.0757
K120V,0.0597,–,0.0608,0.0606,0.0495,0.0524,0.0661,0.0594,–,0.0751,–,0.062,0.0567,–,–,0.0603,0.0612,–,0.0607
S121Q,0.0702,0.0594,0.0594,0.057,–,0.0459,–,0.0407,–,0.0638,0.0607,0.0604,0.0466,–,0.132,0.055,0.0605,0.0357,0.0387
S121T,0.0577,–,0.0621,–,0.0794,–,0.0385,–,–,0.101,–,0.0413,–,–,–,0.059,–,–,–
S123W,0.0611,0.0657,0.0604,0.0535,0.0583,0.0547,0.0561,0.0595,0.0697,0.0834,0.0581,0.0435,0.0563,0.1,0.0896,0.0551,0.0571,0.0533,0.0571
S124K,0.0643,0.061,0.0615,0.116,0.0689,0.0644,–,0.0605,0.0691,0.0796,0.0644,0.0643,0.0614,0.0914,0.11,0.0583,0.057,0.0586,–
M125D,0.0632,0.068,0.0649,0.0636,0.0504,0.0757,0.0728,0.0575,0.0663,0.0664,–,0.0607,0.051,0.0837,0.0988,0.0639,0.0605,–,0.0365
